From patent EP4574844A1 (Numab Therapeutics AG, dated 2025)
Each block holds one binder with its values, some of them ahead of it.

Experiments:
[1] = biological target: human PD-L1 on the cell surface (human, UniProt Q9NZQ7); assay: cell-based or functional assay
[2] = biological target: human CD47 on the cell surface (human, UniProt Q08722); assay: cell-based or functional assay

Sequence of UniProt Q9NZQ7 (Q9NZQ7 19-290): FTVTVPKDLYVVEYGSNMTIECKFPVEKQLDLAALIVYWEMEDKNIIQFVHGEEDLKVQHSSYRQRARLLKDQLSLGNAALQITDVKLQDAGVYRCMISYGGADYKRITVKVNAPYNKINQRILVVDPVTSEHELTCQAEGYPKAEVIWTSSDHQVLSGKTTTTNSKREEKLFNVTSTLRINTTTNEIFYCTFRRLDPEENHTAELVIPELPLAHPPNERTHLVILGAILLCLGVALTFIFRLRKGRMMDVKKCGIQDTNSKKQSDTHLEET

PD-L1 driven EC50 [nM], phagocytosis of H292 cells [1]: 0.11 nM
CD47 driven EC50 [nM], phagocytosis of H292 cells [2]: 6.76 nM
CD47 driven EC50 [nM], phagocytosis of RBCs [2]: 6.25 nM
B1: PRO4711 (antibody, human IgG1, lambda)
chain: DIQMTQSPASLSASVGDRVTITCQASQSIGTYLAWYQQKPGKPPKLLIYRAFILASGVPSRFSGSGSGTDFTLTISSLQPEDFATYYCQSNFYSDSTTIGPNAFGTGTKVTVLGGGGGSGGGGSGGGGSGGGGSEVQLVESGGGLVQPGGSLRLSCAASGFSFNSDYWIYWVRQAPGKGLEWIASIYGGSSGNTQYASWAQGRFTISRDNSKNTVYLQMNSLRAEDTAVYFCARGYVDYGGATDLWGQGTLVTVSS[letters of human IgG1 Fc with changes left out]GGGGSGGGGSDVQMTQSPSSLSASVGDRVTITCQASQSIGSNLAWYQQKPGKPPKLLIYKASTLESGVPSRFSGSGSGTDFTLTISSLQPEDFATYYCQSTAGSSRSGNYGYVFGCGTKVTVLGGGGGSGGGGSGGGGSGGGGSQQLVESGGGRVQPGGSLRLSCAASGFSFTNNYYMCWVRQAPGKCLEWIACMLVGAWGNTYYASWANGRFTISKDNSKNTVYLQMNSLRAEDTATYFCARARDYTWTLGGDPETSGFNLWGQGTQVTVSS
heavy: QVQLVQSGAEVKKPGSSVKVSCKASGYTFSSYAISWVRQAPGQGLEWMGGISPIFGTANYAQKFQGRVTITADESTSTAYMELSSLRSEDTAVYYCARDAGRSSDVGWYVGAIDVWGQGTLVTVSSASTKGPSVFPLAPSSKSTSGGTAALGCLVKDYFPEPVTVSWNSGALTSGVHTFPAVLQSSGLYSLSSVVTVPSSSLGTQTYICNVNHKPSNTKVDKKVEPKSCDKTHTCPPCPAPELLGGPSVFLFPPKPKDTLMISRTPEVTCVVVDVSHEDPEVKFNWYVDGVEVHNAKTKPREEQYNSTYRVVSVLTVLHQDWLNGKEYKCKVSNKALPAPIEKTISKAKGQPREPQVYTLPPCREEMTKNQVSLSCAVKGFYPSDIAVEWESNGQPENNYKTTPPVLDSDGSFFLVSKLTVDKSRWQQGNVFSCSVMHEALHNHYTQKSLSLSPGKGGGGSGGGGSDVQMTQSPSSLSASVGDRVTITCQASQSIGSNLAWYQQKPGKPPKLLIYKASTLESGVPSRFSGSGSGTDFTLTISSLQPEDFATYYCQSTAGSSRSGNYGYVFGCGTKVTVLGGGGGSGGGGSGGGGSGGGGSQQLVESGGGRVQPGGSLRLSCAASGFSFTNNYYMCWVRQAPGKCLEWIACMLVGAWGNTYYASWANGRFTISKDNSKNTVYLQMNSLRAEDTATYFCARARDYTWTLGGDPETSGFNLWGQGTQVTVSS
light: QSVLTQPPSASGTPGQRVTISCSGSSSNIGSNYVYWYQQLPGTAPKLLIYRNNQRPSGVPDRFSGSKSGTSASLAISGLRSEDEADYYCAAWDDSLSGVVFGGGTKLTVLGQPKAAPSVTLFPPSSEELQANKATLVCLISDFYPGAVTVAWKADSSPVKAGVETTTPSKQSNNKYAASSYLSLTPEQWKSHRSYSCQVTHEGSTVEKTVAPTECS

PD-L1 driven EC50 [nM], phagocytosis of H292 cells [1]: 0.08 nM
CD47 driven EC50 [nM], phagocytosis of H292 cells [2]: 10.2 nM
CD47 driven EC50 [nM], phagocytosis of RBCs [2]: 10.4 nM
B2: PRO3843 (antibody, human IgG1, lambda)
heavy 1: B1 heavy
heavy 2: EVQLVESGGGLVKPGGSLRLSCAASGFTFSNAWMNWVRQAPGKGLEWVGRIKTKADGGTTDYAAPVKGRFTISRDDSKNTLYLQMNSLKTEDTAVYYCTTDPGEYWDSVYGGMDYWGQGTLVTVSSASTKGPSVFPLAPSSKSTSGGTAALGCLVKDYFPEPVTVSWNSGALTSGVHTFPAVLQSSGLYSLSSVVTVPSSSLGTQTYICNVNHKPSNTKVDKKV[letters of human IgG1 Fc with changes left out]GGGGSGGGGSDVQMTQSPSSLSASVGDRVTITCQASQSIGSNLAWYQQKPGKPPKLLIYKASTLESGVPSRFSGSGSGTDFTLTISSLQPEDFATYYCQSTAGSSRSGNYGYVFGCGTKVTVLGGGGGSGGGGSGGGGSGGGGSQQLVESGGGRVQPGGSLRLSCAASGFSFTNNYYMCWVRQAPGKCLEWIACMLVGAWGNTYYASWANGRFTISKDNSKNTVYLQMNSLRAEDTATYFCARARDYTWTLGGDPETSGFNLWGQGTQVTVSS
light: B1 light
